According to PubChem BioAssay AID686970 (National Center for Advancing Translational Sciences (NCATS), 2013):
Out of some 360,000 compounds screened, about 6,000 (1.7%) were called active. The inconclusive results got no clear call from the source; some entries with a clear call stand among them for comparison. Calls follow the shape of the dose curve; as a rule, active = well fitted cell-killing curve with a large enough effect; inconclusive = small, poorly fitted or top-dose-only effect, or effect the other way; inactive = flat fitted curve, though single readings scatter. Potencies of inconclusive entries are left out as doubtful fits.
Potency is read from the fitted curve at half-maximal effect; tags tell the direction and shape of the fitted curve.

Experiment: qHTS for induction of synthetic lethality in tumor cells producing 2HG: qHTS for the HT-1080-NT fibrosarcoma cell line;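 also: NT is the 2HG producing partner of a matched IDH1 knockdown line; nearly all actives have a fitted effect of over 55% in size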;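 as to activity, negative = less viability: 0% = DMSO-treated cells and -100% = media-only wells without cells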
Details: HT-1080-NT fibrosarcoma viability, CellTiter-Glo ATP luminescence, 48 h; activity, negative = less viability: at 46.1 µM (top of the series) unless noted
Summary of the method: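 A 48-hour cytotoxicity screen used HT-1080-NT cells plated 2 hours before compound delivery. ATP-based CellTiter-Glo luminescence measured viability, normalized to DMSO and no-cell controls.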
For OC[C@@H]1CN(Cc2ccc(F)cc2)C[C@H](n2cnc3c(NCc4ccco4)ncnc32)O1, the Potency was inconclusive [rising, single point].
For O=C(c1cnc2ccc3ccccc3c2c1)c1cc(F)ccc1O, the Potency was active: 16.4 µM.
With Nc1cccc2c1C(=O)N(C(=O)/C=C/c1cccc(F)c1)C2=O the Potency was active: 18.4 µM.
With COc1cc(/C=N/NC(=O)CC2(C)OCCCO2)ccc1OCc1ccc(Cl)cc1Cl the Potency was inconclusive [cytotoxic, single point].
In the case of COc1ccc(Nc2nc3ccc(OC)cc3s2)cc1, the Potency is reported as “inactive”.
In the case of CN(C)c1ccccc1-c1cc(NC=O)c2ncc(-c3cccc(C(F)(F)F)c3)n2c1, the Potency is reported as inconclusive [cytotoxic, single point].
With CCCCc1ccc(N/C(N)=N/c2nc(C)cc(C)n2)cc1 the Potency was active: 32.6 µM.
With Oc1c(C(c2ccccn2)N2CCOCC2)ccc2cccnc12 (configuration not stated) the Potency was active: 0.355 µM.
In the case of CCOC(=O)[C@]12CCC=C1N(Cc1ccc(Cl)cc1Cl)C(=O)[C@H](CC(=O)NCCc1ccccc1OC)C2, the Potency is reported as inconclusive [cytotoxic, single point].
In the case of N#Cc1cccc(C(c2nnnn2Cc2ccccc2)N2CCCC2)c1 (configuration not stated), the Potency is reported as “inactive”.
For Cc1nc2ccccc2c(=O)n1/N=C/c1ccc(F)cc1, the Potency was “inactive”.
With Cc1ccc(NC(=O)c2c(C(F)(F)F)nn(C)c2SCc2ccc(Cl)cc2)cc1C the Potency was inconclusive [cytotoxic, single point].
In the case of O=C(CN1CCN(C(=O)C2CC2)CC1)Nc1cc(C(F)(F)F)cc(C(F)(F)F)c1, the Potency is reported as “inactive”.
In the case of CCNC(=O)C1(C)CCN(C(=O)c2cccs2)C1 (configuration not stated), the Potency is reported as inconclusive [rising, single point].
With COc1cc(Cl)ccc1OC1(C)CCN(Cc2ccc3ccccc3c2)C1 (configuration not stated) the Potency was inconclusive [cytotoxic, single point].
With N=C(N)SCc1cn(-c2ccccc2)nc1-c1ccc(Br)cc1 the Potency was active: 5.17 µM.
In the case of CCOc1ccc(NC(=O)CSc2nnc(NC(=O)C3CC3)s2)cc1, the Potency is reported as “inactive”.
In the case of CCCCCc1cc(=O)oc2c(C(CCN3CCCCC3)c3ccc(OC)cc3)c(OC)cc(OC)c12 (configuration not stated), the Potency is reported as inconclusive [cytotoxic, single point].
In the case of O=C(CN(Cc1ccco1)S(=O)(=O)c1ccccc1)N/N=C/c1ccccc1C(=O)O, the Potency is reported as “inactive”.
For COc1ccc(CC(=O)Nc2ccccc2C(=O)N2CCOCC2)cc1, the Potency was “inactive”.
For O=C(CSc1ccc(Cl)cc1)N1CCN(c2ccc(Cl)cc2[N+](=O)[O-])CC1, the Potency was inconclusive [cytotoxic, single point].
With CC1CCC2C(=O)N(c3ccc(C(=O)Oc4cccc5cccnc45)cc3)C(=O)C2C1 (configuration not stated) the Potency was inconclusive [cytotoxic, single point].
With Cc1ccccc1OCC(O)CNC1CCC(NCC(O)COc2ccccc2C)CC1 (configuration not stated) the Potency was active: 2.91 µM.
For COc1ccccc1Nc1ncnc2c1c(C)c(C)n2CCO, the Potency was “inactive”.
With CC(C)(C)c1ccc(C(=O)Nc2ccc(S(N)(=O)=O)cc2)cc1 the Potency was inconclusive [cytotoxic, single point].
With Cc1ccccc1OCCc1c(C)[nH]c(=S)[nH]c1=O the Potency was active: 2.31 µM.
In the case of COc1cccc(C2C3=C(CCCC3=O)Nc3nc(-c4cc(OC)c(OC)c(OC)c4)nn32)c1 (configuration not stated), the Potency is reported as inconclusive [cytotoxic, full curve].
For O=C(c1ccc2c3c(cccc13)CC2)C1CCCN(Cc2ccncc2)C1 (configuration not stated), the Potency was active: 13 µM.
For CC(C)(C)N1CC(C(=O)Nc2ccc(C#N)cc2)CC1=O (configuration not stated), the Potency was “inactive”.
With CCOc1ccc2c(c1)C(c1ccc(C)cc1)=NNC(c1ccc(OC)cc1)=N2 the Potency was inconclusive [cytotoxic, single point].
For Cc1ccc(Oc2nnc(-c3ccccc3)c3ccccc23)cc1, the Potency was inconclusive [cytotoxic, single point].
With CCOC(=O)C1=CCN(S(=O)(=O)c2cccc(Cl)c2)C1c1ccc(Br)cc1 (configuration not stated) the Potency was inconclusive [cytotoxic, partial curve].
In the case of COC(=O)NCC(c1cccnc1)N1CCN(c2ccccc2F)CC1 (configuration not stated), the Potency is reported as “inactive”.
In the case of CCc1ccc(/C=C/c2c[nH]c3ccccc23)[n+](CC)c1, the Potency is reported as inconclusive [cytotoxic, partial curve].
For COc1ccc(Cc2nnc(NC(=O)c3ccco3)s2)cc1, the Potency was “inactive”.
With COc1ccc(CNc2nn3c(-c4cccc(C(=O)N(C)C)c4)cnc3s2)cc1 the Potency was “inactive”.
In the case of N#Cc1sc(NCc2cccc(Cl)c2)nc1Cl, the Potency is reported as active: 23.1 µM.
In the case of O=C(NCc1cccnc1)c1ccc(COc2ccccc2Cl)o1, the Potency is reported as inconclusive [cytotoxic, full curve, poor fit].
In the case of CN(C)Cc1csc(NC(=O)Nc2ccccc2Oc2ccccc2)n1, the Potency is reported as active: 16.4 µM.
In the case of Cc1ccc(CNC2CCCCC2)s1, the Potency is reported as “inactive”.
In the case of O=[N+]([O-])c1cc(Cl)cc(/C=N/NC(=S)Nc2ccc(S(=O)(=O)N3CCOCC3)cc2)c1O, the Potency is reported as inconclusive [cytotoxic, single point].
With Oc1ccc(/C(Cc2ccc3ccccc3n2)=N\Nc2ccccc2)c(O)c1 the Potency was inconclusive [cytotoxic, single point].
For COC(=O)c1cc(C(=O)c2c(C)cc3ccccn23)cc([N+](=O)[O-])c1, the Potency was active: 16.4 µM.
For Cc1ccc(-n2cc(CNCCc3cscn3)c(-c3ccc(F)cc3)n2)cc1, the Potency was active: 20.6 µM.
For CCc1cc2ccc(C)cc2nc1SCC(=O)N1CCN(C(=O)c2ccco2)CC1, the Potency was “inactive”.
With Cc1cc(C)c2nc(C)cc(N/N=C/c3ccc(O)cc3)c2c1 the Potency was active: 5.17 µM.
In the case of O=C(Nc1cccc(Cl)c1)C1CCCN(S(=O)(=O)c2ccc(F)cc2)C1 (configuration not stated), the Potency is reported as inconclusive [cytotoxic, single point].
With O=C(C#Cc1ccccc1)Nc1cccc(F)c1 the activity, negative = less viability was inconclusive: -81.2%.
With Cc1ccc(-c2nn(-c3cc(N4CCNCC4)ccc3[N+](=O)[O-])c(=O)c3ccccc23)cc1 the Potency was active: 14.6 µM.
With Cn1c(N)c(C(=O)COC(=O)c2cc(-c3ccccc3)nc3ccccc23)c(=O)n(Cc2ccccc2)c1=O the Potency was “inactive”.
In the case of CCc1ccc(CN(C)CC(=O)Nc2ccc3c(c2)CCC3)cc1, the Potency is reported as “inactive”.
For CCOC(=O)N1CCC(NC(=O)C2CCCN(S(C)(=O)=O)C2)CC1 (configuration not stated), the Potency was “inactive”.
For Cc1cccc(C)c1NC(=O)CN1CCN(CCCC(c2ccc(F)cc2)c2ccc(F)cc2)CC1, the Potency was inconclusive [rising, single point].
For CC(=O)Oc1cccc(C(=O)Nc2ccc(NC(=O)c3cccs3)cc2)c1, the Potency was inconclusive [cytotoxic, single point].
With O=C(c1nnsc1S(=O)c1ccc(Cl)cc1)N1CCOCC1 (configuration not stated) the Potency was active: 13 µM.
For CC1C/C(=N\NC(N)=S)c2cc(Cl)ccc2S1 (configuration not stated), the Potency was inconclusive [cytotoxic, single point].
For O=C1c2ccccc2C(=O)c2c1cccc2N(CCO)CCO, the Potency was inconclusive [cytotoxic, partial curve].
For COc1cccc(CN(C)CC2CCCN(CCc3ccc(Cl)cc3)C2)c1OC (configuration not stated), the Potency was inconclusive [cytotoxic, partial curve].
With O=[N+]([O-])c1ccccc1S(=O)c1ccccc1[N+](=O)[O-] the Potency was active: 20.6 µM.
With COc1ccccc1CCNC(=O)CSc1nc(=O)[nH]c2c1CCC2 the Potency was “inactive”.
For Cc1[nH]nc2c1C1(C(=O)N(Cc3ccc(Cl)cc3)c3ccccc31)C(C#N)=C(N)O2 (configuration not stated), the Potency was inconclusive [cytotoxic, single point].
With Cc1ccccc1-c1cc2nc(NCc3ccccc3)n(C)c(=O)c2s1 the Potency was inconclusive [cytotoxic, single point].
In the case of Cc1ccc(NC(=O)C2CCN(S(=O)(=O)c3ccc4c(c3)CC(C)N4C(=O)C3CCC3)CC2)nc1 (configuration not stated), the Potency is reported as “inactive”.
In the case of OC(c1cccc(Cl)c1)c1nc(-c2ccoc2)cs1 (configuration not stated), the Potency is reported as inconclusive [cytotoxic, single point].
In the case of Cc1nnc(N/N=C/c2cccs2)[nH]c1=O, the Potency is reported as inconclusive [rising, single point].
For O=C(CNC(=O)c1ccccc1)OCc1cc(=O)n2cc(Br)ccc2n1, the Potency was “inactive”.
With O=Cc1c[nH]c2ccc(NC(=O)OCc3ccccc3)cc12 the Potency was “inactive”.
For CCN(CC)C(=O)c1c[nH]c2ccc(S(=O)(=O)Nc3cc(C)cc(C)c3)cc2c1=O, the Potency was “inactive”.
With OC(CNC1CCCCC1)CNC1CCCCC1 the Potency was “inactive”.
With CCc1cccc(C)c1NC(=O)CN1CCN(S(=O)(=O)c2ccc(C(C)(C)C)cc2)CC1 the Potency was inconclusive [cytotoxic, single point].
With CCN(CC)S(=O)(=O)c1ccc(C)c(NC(=S)N2CCN(Cc3ccc4c(c3)OCO4)CC2)c1 the Potency was inconclusive [cytotoxic, partial curve].
For COc1ccc(NC(=O)C2=CC(c3ccco3)=NS(=O)(=O)N2C)cc1OC, the Potency was “inactive”.
In the case of O=C(CSc1nnc(COc2ccccc2)o1)NC1CC2CCC1C2 (configuration not stated), the Potency is reported as “inactive”.
In the case of CCOC(=O)C1=C(C)N=c2s/c(=C\c3ccc(O)c([N+](=O)[O-])c3)c(=O)n2C1c1ccccc1OC (configuration not stated), the activity, negative = less viability is reported as inconclusive: -15.4% [cytotoxic].
In the case of C=CCn1c(=O)c2ccc(C(=O)NCc3ccccc3)cc2n(Cc2ccc(Cl)cc2)c1=O, the Potency is reported as “inactive”.
For Cc1cc(C)c2c(NC(=O)CCl)nn(C)c2n1, the Potency was inconclusive [cytotoxic, single point].
For O=[N+]([O-])c1cc(-c2nc(-c3ccncc3)no2)cc([N+](=O)[O-])c1, the Potency was “inactive”.
